± gives the standard deviation. The list shows a part of the results, in another mix than the full data.
System: MIWI (PIWIL1) piRISC loaded with piRNA #1 (30 nt)
Test: pre-steady-state target cleavage rate (min^-1); MIWI and MILI are mouse PIWI proteins and EfPiwi is from a freshwater sponge; tags in brackets are library labels; higher = faster piRNA-guided slicing of the target
Details: guide: piRNA #1 5'p-UGAGGUAGUAGGUUGUAUAGUAUCCAGAGG; auxiliary factor: 500 nM mouse GTSF1
Method in brief: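 Cleave-'n-Seq reactions paired 0.1 nM transcribed, DNA-blocked target RNA library with 1 nM active affinity-purified piRISC holding one synthetic guide, plus or minus 500 nM GTSF1 partner protein, in HEPES–potassium acetate buffer at 33 °C for 0–8 or 0–960 min. After sequencing of uncleaved targets and normalisation to depth and weakly complementary targets, the pre-steady-state cleavage rate was taken from a burst-and-steady-state fit. Three trials were pooled, and k3 was capped at 0.0001 min^-1.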

Q: GGAGUGGAUACUAUACAACCAACAACCUCA was tested. Which “pre-steady-state target cleavage rate” value did it give?
A: 0.0532 ± 0.0078

Q: How did the “pre-steady-state target cleavage rate” value turn out when GGAGACCUAUGAUAUGUUGGAACUACCACA was run?
A: < 0.0001

Q: With GGAGACCAUUCUAUACAACCUACUACCACA as the sequence, how does the “pre-steady-state target cleavage rate” value read?
A: 1.16 ± 0.1

Q: With GGAGACGAUACUAUACAACCUUGAACCUCA as the sequence, how does the “pre-steady-state target cleavage rate” value read?
A: 0.00705 ± 0.0029

Q: How did the “pre-steady-state target cleavage rate” value turn out when GGAGACCUAUGAUUACAACCUACUAGCACA was run?
A: < 0.0001

Q: With GGACUGGACUACUAUACAACCUACUACCUCA as the sequence, how does the “pre-steady-state target cleavage rate” value read?
A: 1.32 ± 0.1

Q: With GGAGAGGAUACUAUACAAGCUACUACGUCA as the sequence, how does the “pre-steady-state target cleavage rate” value read?
A: 0.723 ± 0.043

Q: With CCUCUGGAUACUAUACAACCUAUACCUCA as the sequence, how does the “pre-steady-state target cleavage rate” value read?
A: 0.0182 ± 0.0059

Q: With GCUCUGGAAACUAUACAACCUUCUACCUCA as the sequence, how does the “pre-steady-state target cleavage rate” value read?
A: 0.738 ± 0.047

Q: For GGACUGUGAUACUAUACAACCUACUACCUCA, which “pre-steady-state target cleavage rate” value is on record?
A: 1.72 ± 0.11

Q: GGAGACCUAUGAUAUGUUCCUACUACACUCA was tested. Which “pre-steady-state target cleavage rate” value did it give?
A: < 0.0001

Q: For GGAGAGGAAUACUAUACAACCUACUACCUCA, which “pre-steady-state target cleavage rate” value is on record?
A: 1.32 ± 0.066

Q: GGAGUGGAUACAAUACAACCUUCUACCUCA was tested. Which “pre-steady-state target cleavage rate” value did it give?
A: 0.604 ± 0.033

Q: GGAGACCAUUCUAAACAACCUACUACCUCA was tested. Which “pre-steady-state target cleavage rate” value did it give?
A: 0.322 ± 0.053

Q: With GGAGACCUUACUAUACAAGCUACUAGCUCA as the sequence, how does the “pre-steady-state target cleavage rate” value read?
A: 0.318 ± 0.03

Q: With GGAGACCUAAUAUACAACCUACUACCUCA as the sequence, how does the “pre-steady-state target cleavage rate” value read?
A: 0.265 ± 0.048

Q: How did the “pre-steady-state target cleavage rate” value turn out when GGAGACCUAAGUAUACAACCUACUAGCUCA was run?
A: 0.0148 ± 0.0044

Q: Which “pre-steady-state target cleavage rate” value does the source give for GGAGACGAUACUAUACAACCUAGUUCCUCA here?
A: 0.178 ± 0.043

Q: GGAGUGGAUACUAUAGAACGUACUACCUCA was tested. Which “pre-steady-state target cleavage rate” value did it give?
A: 0.371 ± 0.037

Q: With GGAGACGAUACUAAACAACCUACUACCUCA as the sequence, how does the “pre-steady-state target cleavage rate” value read?
A: 1.57 ± 0.1

Q: How did the “pre-steady-state target cleavage rate” value turn out when CGUCUGGAUACUAUACAACGUACUACCUCA was run?
A: 0.603 ± 0.043

Q: Which “pre-steady-state target cleavage rate” value does the source give for GGACUCGAUACUAUACAUCCUACUACCUCA here?
A: 1.54 ± 0.1

Q: Which “pre-steady-state target cleavage rate” value does the source give for GGAGACCUAUGAUAUGUUGGUACUACGUGA here?
A: < 0.0001

Q: Which “pre-steady-state target cleavage rate” value does the source give for GGAGUGGAUACUUUACAACCUACAACCUCA here?
A: 0.0832 ± 0.013

Q: GGAGAGCAUACUAUACAACCUACUACCUGA was tested. Which “pre-steady-state target cleavage rate” value did it give?
A: 0.765 ± 0.063

Q: GCUCUGGAUACUAUACAACCUAACUACCUCA was tested. Which “pre-steady-state target cleavage rate” value did it give?
A: 0.025 ± 0.0054

Q: GGAGACCUAACAAUACAACCUACUACCUCA was tested. Which “pre-steady-state target cleavage rate” value did it give?
A: 0.306 ± 0.095

Q: How did the “pre-steady-state target cleavage rate” value turn out when GGACUGUAUACUAUACAACCUACUACCUCA was run?
A: 1.5 ± 0.13

Q: With GCUCUGGAUUCUAUACAAGCUACUACCUCA as the sequence, how does the “pre-steady-state target cleavage rate” value read?
A: 1.3 ± 0.07

Q: Which “pre-steady-state target cleavage rate” value does the source give for CCUCUGGAUACUAUACAACCAACAACCUCA here?
A: 0.096 ± 0.015

Q: How did the “pre-steady-state target cleavage rate” value turn out when GCUCUGGAUACUAUACAACCUACUACCCA was run?
A: 0.801 ± 0.084

Q: Which “pre-steady-state target cleavage rate” value does the source give for GGAGACCUAACUAUACAACCUACUUCGUCA here?
A: 0.0946 ± 0.033

Q: How did the “pre-steady-state target cleavage rate” value turn out when “GGAGUGGAUACUAUACAACCUACUACCUCA [g2:g26:cont:t1A]” was run?
A: 1.71 ± 0.088

Q: For GGAGAGCGAUACUAUACAACCUACUACCUCA, which “pre-steady-state target cleavage rate” value is on record?
A: 1.97 ± 0.11

Q: Which “pre-steady-state target cleavage rate” value does the source give for GGAGACCUUACUAUAGAUCCUACUACCUCA here?
A: 0.495 ± 0.043

Q: Which “pre-steady-state target cleavage rate” value does the source give for GCUCUGGAUACUAUACAACCUAGAUCCUCA here?
A: 0.156 ± 0.03

Q: Which “pre-steady-state target cleavage rate” value does the source give for GCUCUGGAUACUAUACAAGCUACUACGUCA here?
A: 0.699 ± 0.035

Q: How did the “pre-steady-state target cleavage rate” value turn out when GGAGACCUAUCUAUACUACGUACUACCUCA was run?
A: 0.00408 ± 0.0024

Q: With GGAGACCAUACUAUACAGCCUACUACCUCA as the sequence, how does the “pre-steady-state target cleavage rate” value read?
A: 0.595 ± 0.03

Q: GGAGACCUAUCUAUACAACCUCCUACCUCA was tested. Which “pre-steady-state target cleavage rate” value did it give?
A: 0.391 ± 0.028
